# The supplement of paper PMC8728848
# The list shows a part of the results.
# Assays:
# [1] = target: Neu5Gc(a2-8)Neu5Gc(a2-6)Gal(b1-4)GlcNAc; experiment: glycan array binding signal (z-score within array); higher = stronger binding; conditions: glycan notation: IUPAC condensed, linker removed
# Method in brief: (§1)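 The Consortium for Functional Glycomics database supplied 3228 glycan arrays, of which those lacking an available protein sequence were dropped. The binding signal, a within-array Z-score, was averaged across arrays of the same protein sequence and across linkers. Negative scores can be read as non-binding.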
# [2] = target: Neu5Gc(b2-6)Gal(b1-4)GlcNAc; experiment: as above; conditions: glycan notation: IUPAC condensed, linker removed
# Method in brief: as §1
binder,measurement,setting,value
GS14009A-pdi-495-27-495 (Parabacteroides distasonis) (protein) FEEVNTDPDSPTDVPTTNLLAYSLYYTSYRLYDRWFAMDEPMTFCGYASKMTYIDESRYNFRTGVQDTNWEYLYRILNNLKDIEKRATFNETPNMLNVSKVMQVHLMQVATDRWRDVPYTDAAKMTDGILQPKYDKQEDIYPGLLATLKEAADGFADGGSDDLGEGDLLFGGDIEKWQRYCNSMRLRLAMRISEVSPALAKETVEEVMGNPTKYPIMESNDDNAFFWWIGTDPNYYEPMADGYRTRKTEYCAADVIVDHMNTREDPRRSSYFQPTKESVEAGEPKYVGYTIGAKANAVASKYSIWGARFFTDLAGFSPYMRVAEPWFCVAEASMLGWNTGISAEDAYNKAVTYSMEENSVSAEDIADYLANAGKFTNDKKQIYYEEWVAMFKQGMEGWSLYRRTGVPDNLYPAPGRPANYSNHNVPPFRSPYPDKERNLNNANCAPFDAEVVDNLWGKQMWWDTRTGVH,glycan array binding signal (z-score),[1],0.137
same,glycan array binding signal (z-score),[2],0.367
